Laboratory results taken from the RNAGym collection of RNA variant scans (doi:10.7554/elife.90254).
Read counts are not given, so values of variants with three or more changes are uncertain.

B1: OR4K15 (parent)
chain: GUUAACGGUCAUAGGCCAUGGAAACUAGGAGCACCAUUUCGCUGCCAGUGAAGAAAUGAACAAAGAAAAUCUGGGCCAGGCAGGCAUCAAAAGAAAUAGUCUUGCGCUCAACCAGAAAGUCUGUAAUCAUUUUAAGGGUA

Variants of: B1
Assay: self-cleavage, relative activity (ratio to wild type); higher = more cleavage; in vitro, sequencing; the parent is a self-cleaving ribozyme

Row | Variant | self-cleavage
1 | A22G U39A U72A A118U A126G | 0.01
2 | A22G U43C A69G U72C A96G | 0.28
3 | A23G C88U A89G | 0.55
4 | A23G U87C A110U A129U | 0.4
5 | A23G U38A A68G U72A A126G | 0.22
6 | A22G U37C A54G | 1.35
7 | A23G A95G U103A | 0.82
8 | A23G A60G U70C A86G | 0.76
9 | A23G U43C A67U U72A A86G U97A A125G | 0.11
10 | A22U A47U A67G A78U | 0.24
11 | A23G A27G A36G U72A A114C U122C U127C | 0
12 | A23G A92U U120C | 0.96
13 | A23G A59U A63G | 1.63
14 | A22G U43C A51G A118G | 1.21
15 | A23G U39C U43G A51G U108A | 0.04
16 | A23G A56G A62G A117G | 0.3
17 | A22G U100C A111G U127A U132C | 0.01
18 | A22G U38C U39C A96G U131C | 1.62
19 | A23G A51G A54G | 1.14
20 | A23G A64G A90G A116G | 0.19
21 | A22G U87A A126G | 1.08

Row | Variant | self-cleavage
22 | A23G A89G U132C | 1.07
23 | A22G U39A A55G U57C A95G A126U | 0.56
24 | A23G G31A A52G U108C | 0
25 | A23U A30G A90G | 0.82
26 | A23G G48U A78C | 0.32
27 | A23G A54G A126G U132C | 0.92
28 | A22U A24C A95G | 2.37
29 | A23G A56G U87C A94G | 1.54
30 | A23G U57C A90G C105U U108C U127A | 0.02
31 | A23G A30G A69G | 0.91
32 | A23G U103C A116G A117G | 0.1
33 | A22U A54G C71A | 0.74
34 | A23G A33G A64G | 1.09
35 | A23G A94G G104A | 0.04
36 | A22U A30G A59U A118G G123C A129G | 0.46
37 | A22U G44C A82U | 0.11
38 | A22U A63G A64G G65A U120C | 1.91
39 | A23G U70A A86G A91U | 1.11
40 | A22U U43C A95G | 1.06
41 | A23G U49A A55G | 1.03
42 | A23G C46U A92G A114G | 0.38

Row | Variant | self-cleavage
43 | A23G U39A A66G A82U | 0.09
44 | A23G A54G A64G U108C | 0.02
45 | A23G A116G A129G | 0.44
46 | A23G A30G U132C G136A | 1.3
47 | A23G C34U A82U U100C A110G A118G | 0.13
48 | A23G A33G U38C A117U | 0.81
49 | A23G U39A A92G A126G | 0.71
50 | A23G A60G U87C | 1.46
51 | A22U A78U A111U | 0.03
52 | A23G A90G U120C | 0.42
53 | A22U U37C C61U A90C | 1.88
54 | A23G A67G U127C | 1.78
55 | A22U C85A U103C | 0.09
56 | A23G G31A A116G | 0.46
57 | A23G A47G A110G | 0.12
58 | A23G A111G A116U | 0.01
59 | A23G A91G U97A A114G | 0.17
60 | A23G A55G A60G U87C | 0.96
61 | A22U A68G A98G A114G | 0.15
62 | A23G A30G A96G U103C A118G | 0.12
63 | A23G C46U A56G | 1.66

Row | Variant | self-cleavage
64 | A23G A68G A78G | 0.27
65 | A22G U37C A90G A117G | 0.16
66 | A23G A56U U102A | 0.27
67 | A22G U70C U87C | 0.56
68 | A23G A55C A60G U133C | 0.08
69 | A23G A52U A56G | 1.04
70 | A23G U37C A68G A78U A114G A129G | 0.06
71 | A23G U49A A86G A129U | 0.26
72 | A22G U26C A82G | 0.34
73 | A23G A59G A68G | 0.77
74 | A23G A56G A64G | 0.39
75 | A23G A27C A36U A90G A95G U103C | 1.84
76 | A23G A30G A54C A60G A91G A96G U108C | 0.03
77 | A22U C61U A92G U102C A129U | 0.66
78 | A23G A91G U97C | 0.92
79 | A23G A47G C128A | 0.79
80 | A23G A90G A94G U131C | 0.54
81 | A22G U37C A47U A68G | 1.38
82 | A23G U38A A60G | 0.51
83 | A23G U37C U38C A92U G123A | 1.18
84 | A22U A64G A117U | 1.05
